Data reported in ChEMBL document CHEMBL4888484, “Replenishing the malaria drug discovery pipeline: Screening and hit evaluation of the MMV Hit Generation Library 1 (HGL1) against asexual blood stage Plasmodium falciparum ,using a nano luciferase reporter read-out” (2022).
The campaign covered roughly 150,000 compounds. About 540 (0.36%) showed an effect of 50% or more. The list shows a part of the results.

These compounds were tested on Plasmodium falciparum (assay: Primary screen in NF54 nanoGlo assay, in single point, at 2uM, 72h; a lower Z score goes with more inhibition). Conditions: timepoint 72 hour.
Assay type: functional, Erythrocyte
With `C[C@@H](Cc1ccccn1)N(C)C1Cc2ccccc2C1` the “% Inhibition” value was 0% and the Z score was -0.04. With `CNc1ncccc1C(=O)N[C@@H]1[C@@H]2CCO[C@@H]2[C@H]1N1CCCC1` the “% Inhibition” value was 3% and the Z score was -0.47. With `CCc1ocnc1C(=O)N1C[C@H](c2cccc(F)c2F)[C@@H]2[C@H]1C1CCN2CC1` the “% Inhibition” value was -4% and the Z score was 0.62. In the case of `CC(C)n1ccc(CC(=O)N2C[C@@H]3CCCN3Cc3ccccc32)n1`, the “% Inhibition” value was -10% and the Z score was 0.86. In the case of `CCc1cc(CN(C)CCN2C[C@@H]3CC[C@H]2C3)on1`, the “% Inhibition” value was -7% and the Z score was 0.91. For `COc1ccc(C2(CN[C@H]3CCOC3)CCC2)cc1`, the “% Inhibition” value was -18% and the Z score was 2.23. `CCc1ccc(-c2n[nH]c3c2C2(C(=O)O)CC(N3)c3cc(Cl)ccc3O2)cc1` (centres undefined) was tested, and the “% Inhibition” value was -10% and the Z score was 1.47. `Cc1ccc(NC(=O)c2nnn(C3CCNCC3)c2C)cc1Cl` was tested, and the “% Inhibition” value was -4% and the Z score was 0.44. `Cc1cc(C)cc(CC(C)NC(=O)NC2CCC(=O)N(C)C2)c1` (centres undefined) was tested, and the “% Inhibition” value was -4% and the Z score was 0.7. `CCOC(=O)c1c(C)n(Cc2ccccc2)c2cc(-c3ccccc3)c(O)cc12` was tested, and the “% Inhibition” value was 2% and the Z score was -0.28. With `O=c1[nH]c2ccc(S(=O)(=O)NC3CCCC(C(F)(F)F)C3)cc2o1` (centres undefined) the “% Inhibition” value was 8% and the Z score was -0.98. For `CN1Cc2ccccc2-n2ccnc2C12CCN(C(=O)Cc1cccc(F)c1)CC2`, the “% Inhibition” value was -9% and the Z score was 1.2. With `N#Cc1ccc(CN2C[C@H](C(=O)O)[C@@H](c3ccc(F)cc3)C2)cc1` the “% Inhibition” value was -3% and the Z score was 0.58. `CC(C)OC(=O)C1C(=O)NC23CCCCC2C1c1ccccc1O3` (centres undefined) was tested, and the “% Inhibition” value was 2% and the Z score was -0.28. For `COc1ccccc1[C@@H]1CN(c2ncnc3[nH]ccc23)[C@@H]2C3CCN(CC3)[C@@H]21`, the “% Inhibition” value was 11% and the Z score was -1.48. For `COc1ccc(NC(=O)N2[C@H]3CC[C@@H]2c2cncnc2C3)c(C)c1`, the “% Inhibition” value was -3% and the Z score was 0.4. In the case of `Cc1cccnc1CNC(=O)NC1C2CCCC1CN(C1CC1)C2` (centres undefined), the “% Inhibition” value was 3% and the Z score was -0.37. `CCNC(=O)CN1CCC[C@H](C(=O)c2ccc3c4c(cccc24)CC3)C1` was tested, and the “% Inhibition” value was -10% and the Z score was 1.26. With `CCCn1c(=O)cc(C)c2ccc(OCC(=O)N3CCN(C)CC3)cc21` the “% Inhibition” value was -23% and the Z score was 2.04. `C/C=C\Cn1c(C(=O)NC2CC2)cc2c(OCC)cccc21` was tested, and the “% Inhibition” value was -16% and the Z score was 1.76. In the case of `CN1CCN(C(=O)Cc2cccc3ccccc23)CC1`, the “% Inhibition” value was -8% and the Z score was 1. For `N#Cc1ccc(C(=O)N2C[C@H](c3cccc(F)c3F)[C@@H]3[C@H]2C2CCN3CC2)cn1`, the “% Inhibition” value was -7% and the Z score was 0.84.
